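The compound was tested at five concentrations on cells cultured in 96-well plates, with a 48-hour exposure period. GI50 is the concentration that inhibits growth by half.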 Calls of active or inactive are those of the source. Rule as the data show it: active = GI50 up to about 1.1 µM and inactive = higher.

The test system of the experiment is NCI-H322M. Nature of the experiment: inhibition of tumour cell growth, NCI panel, 48 h.
With `C=CCn1c(=O)n(CC=C)c(=O)n(CC=C)c1=O`, the GI50 is inactive: > 100 µM.
Regarding `C1CNCCN2CCCNCCN(C1)CC2`, the GI50 was inactive: > 100 µM.
On to `CC(=O)Nc1ccccc1C=C1c2ccccc2-c2ccccc21`, for which the GI50 is inactive: 45.6 µM.
On to `CCc1ncc(CO)n1Cc1cccc2ccccc12`, for which the GI50 is inactive: > 100 µM.
For `Cc1ccc2c(c1C)-c1c(ccc(C)c1C)C(=O)C2=O`, the GI50 was inactive: 1.52 µM.
Consider `c1ccc(CN2CCc3[nH]c4ccccc4c3C2)cc1`, for which the GI50 is inactive: 22.1 µM.
The same measure for `CCCCCCCCCCCCCCCC[N+](C)(C)Cc1ccc(F)cc1`: inactive: 12.4 µM; for `CCCc1cn2c(/C=N/NC(=N)N)c(-c3ccc(Cl)c([N+](=O)[O-])c3)nc2s1`: inactive: 1.76 µM; for `O=[N+]([O-])c1cc(C2ON=C(c3ccccc3)N2C23CC4CC(CC(C4)C2)C3)ccc1Cl` (centres undefined): inactive: > 100 µM.
To `Cc1c(C(=O)CC(=O)C(=O)Nc2ccc(Cl)c(Cl)c2)[n+]([O-])c2ccccc2[n+]1[O-]` belongs inactive: 22.1 µM.
As for `O=C(O)CC12C3C4C5C3C1C5C42` (centres undefined), the GI50 is inactive: > 100 µM.
Turning to `Cc1cc2[nH]c3[nH]c(=O)[nH]c(=O)c3c2cc1C`, the GI50 was inactive: > 100 µM.
For the compound `Cc1sc(Nc2ccccc2[N+](=O)[O-])c(C#N)c1C`, the GI50 was inactive: 14.4 µM.
`CC1=NN(C(=O)CC(=O)Nc2cccc(Cl)c2)C(=O)C1/N=N/c1ccc(C(=O)O)cc1` (centres undefined): the GI50 is inactive: > 100 µM.
As to `N=C(N)Nc1ncccc1[N+](=O)[O-]`, the GI50 was inactive: > 100 µM.
The same measure for `CC1(C)Cc2nc3c(cc2C(=O)C1/C=N/C(C#N)=C(\N)C#N)C(=O)C(/C=N/C(C#N)=C(\N)C#N)C(C)(C)C3` (centres undefined): inactive: 3.23 µM; for `Oc1ccc2c3c1OC1c4[nH]c5c(c4CC4(O)C(C2)N(CC2CC2)CC[C@]314)CC1(O)C2Cc3ccc(O)c4c3[C@@]1(CCN2CC1CC1)C5O4` (some centres undefined): inactive: 34.5 µM.
The same measure for `COc1cc(S(=O)(=O)Nc2nc(-c3ccc(N4C(=O)/C(=C/C=C/c5ccccc5)N=C4c4ccccc4)cc3)cs2)ccc1Cl`: inactive: > 100 µM; for `COC(=O)CCc1cc(O)c2c(c1)C(C(=O)OC)C(c1ccc(O)c(O)c1)O2` (centres undefined): inactive: 44.1 µM.
The same measure for `CCOC(=O)/C=C(/C(=O)OCC)n1ccc(=O)n(/C(=C/C(=O)OCC)C(=O)OCC)c1=O`: inactive: 18.7 µM.
Turning to `O=C(CCC(=O)Nc1ccc(Cl)cc1)CC(=O)c1ccc2ccccc2c1`, the GI50 was inactive: > 100 µM.
With `CCOC(=O)/C=C(/C(=O)OCC)n1cc(C)c(=O)n(Cc2cn(CCCCOC(C)=O)nn2)c1=O`, the GI50 was inactive: > 100 µM.
Regarding `O=C1CCCC2=C1CC1=C(CCCC1=O)N2c1cccc2ccccc12`, the GI50 was inactive: > 100 µM.
`CC(=O)Oc1c(OC(C)C)c(C)c(O[Si](C(C)C)(C(C)C)C(C)C)c2[nH]c3ccccc3c12`: the GI50 is inactive: > 100 µM.
To `COc1ccc(C2S/C(=C\c3cccc([N+](=O)[O-])c3)C(=O)N2NC(=O)Cc2ccccc2)cc1` (centres undefined) belongs inactive: > 100 µM; to `C[C@H]1ON2CCC[C@@H]2[C@@H]1C(=O)N1C2CC3CCC2(CS1(=O)=O)C3(C)C` (some centres undefined), inactive: > 100 µM; to `CCOC(=O)C(=O)/C(=C/NC(=S)Nc1ccc(Cl)c(Cl)c1)C(=O)OCC`, inactive: > 100 µM.
As to `C=CCNC1=C2C[C@@H](C)C[C@@H](OC)[C@H](OC(=O)CN(C)C)[C@H](C)/C=C(\C)[C@@H](OC(N)=O)[C@H](OC)/C=C\C=C(/C)C(=O)NC(=CC1=O)C2=O`, the GI50 is inactive: 3.57 µM.
`S=P1(Sc2ccccc2)Oc2ccc3ccccc3c2-c2c(ccc3ccccc23)O1`: the GI50 was inactive: > 53.7 µM.
To `Cc1cn(C2CC(n3cncn3)C(C(C)O)O2)c(=O)[nH]c1=O` (centres undefined) belongs inactive: > 100 µM.
The same measure for `Cc1cnc(-c2c[nH]c3ccccc23)nc1-c1c[nH]c2ccccc12`: inactive: 12.3 µM; for `CC(=O)[C@]1(O)Cc2c(O)c3c(c(O)c2[C@@H](OC2CC(N)C(O)C(C)O2)C1)C(=O)c1c(OCc2ccccc2)cccc1C3=O` (some centres undefined): inactive: 2.27 µM; for `O=C(CC1(O)C(=O)Nc2c(Cl)cc(Cl)cc21)c1cccc([N+](=O)[O-])c1` (centres undefined): inactive: 57.9 µM.
To `Cc1ccc2c(c1)C(C1Cc3c(C)cccc3C1=O)OC2=O` (centres undefined) belongs inactive: 23 µM; to `O=C(CC(O)(C(F)(F)F)C(F)(F)F)C(c1ccccc1)C(O)(C(F)(F)F)C(F)(F)F` (centres undefined), inactive: 7.03 µM.
As to `CCn1c(=O)c2c3cc(OC(C)=O)ccc3oc2c2ccc(OC(C)=O)cc21`, the GI50 was inactive: 36.4 µM.
As for `CCCCOC(=O)C(=O)C(CC(CC)C(=O)c1ccccc1)C(=O)C=C(C)C` (centres undefined), the GI50 is inactive: > 100 µM.
With `O=C(/C=C/c1ccc(Cl)cc1)c1ccc(Cl)c(Cl)c1`, the GI50 was inactive: 57.7 µM.
In the case of `O=C1CCC2(CCO1)OCCO2`, the GI50 is inactive: > 100 µM.
The same measure for `CN(Cc1cnc2nc(N)nc(N)c2n1)c1ccc(C(=O)NC23CC4CC(CC(C4)C2)C3)cc1`: inactive: 13.1 µM; for `N#Cc1c(O)nc2nn3c4ccc5ccccc5c4nnc3c2c1-c1ccc(Cl)cc1`: inactive: 3.91 µM.
`CCSC12CC3c4cccc5c4C(CN5C(=O)c4ccccc4)CC3(O1)N(C)C2=O` (centres undefined): the GI50 is inactive: 35.8 µM.
With `CCCCC/C=C\C=C\CCCCCCCCC(=O)OC`, the GI50 was inactive: > 100 µM.
As for `COc1cccc2c(NNc3ccc(Cl)cc3)c3ccc([N+](=O)[O-])cc3nc12`, the GI50 was inactive: 16.1 µM.
Turning to `Cc1cc(C)c(C(=O)c2nnc3ccccc3c2N)c(C)c1`, the GI50 was inactive: 18.3 µM.
The same measure for `CC(C)(C)c1cc(C(O)(C(F)(F)F)C(F)(F)F)c2c(c1)C(C(F)(F)F)(C(F)(F)F)OC(c1ccccc1)(C(C)(C)C)N2` (centres undefined): inactive: 9.25 µM.
For `COC1(OC)C2(Cl)C3=CCCC=C3C1(Cl)C(Cl)=C2Cl`, the GI50 is inactive: 68.7 µM.
Consider `O=[N+]([O-])c1ccc(-c2ccc(-c3csc(Nc4ccccc4)n3)o2)cc1`, for which the GI50 was inactive: 56.8 µM.
On to `Oc1cccc(-c2cc(=S)ss2)c1`, for which the GI50 was inactive: 21.3 µM.
With `O=C(Nc1nnc(-c2ccccc2)o1)C(SC(=S)N1CCCC1)c1ccccc1` (centres undefined), the GI50 was inactive: 22.8 µM.
Take `COc1cccc(NC(=O)c2c(SC)c(C#N)c(=O)n(N)c2N)c1`: the GI50 is inactive: 45.1 µM.
Regarding `CC(C)(C)c1ccc(C(C)(C)C)c(N2C(=O)C3ON=C(c4ccc([N+](=O)[O-])cc4)C3C2=O)c1` (centres undefined), the GI50 is inactive: 15.8 µM.
As to `CC(=O)OCC1OC(n2c3c(c(-c4ccco4)c(C#N)c2=S)CCCC3)C(OC(C)=O)C(OC(C)=O)C1OC(C)=O` (centres undefined), the GI50 is inactive: > 100 µM.
The same measure for `O=c1c2c3c(sc2nc2n1N=CN(c1ccccc1)C2)CCCC3`: inactive: > 100 µM; for `CCC(C)C1(O)OC2CC3(C)OC(=CC3=O)/C(C)=C\C3OC(=O)C1(C)C32` (centres undefined): inactive: 22.4 µM; for `[N-]=[N+]=Nc1cc(=O)n2c3c(cccc13)CCC2`: inactive: > 100 µM.
For the compound `CCOC(=O)C1N(S(=O)(=O)c2ccc(C)cc2)CCC12c1ccccc1N(C(C)=O)C2C(/C=C/C(=O)OC)=C/C(=O)OC` (centres undefined), the GI50 is inactive: > 100 µM.
Turning to `O=C(CN1CCN(c2ccccc2)CC1)N1CCc2c([nH]c3ccccc23)C1c1cccnc1` (centres undefined), the GI50 was inactive: 69.3 µM.
In the case of `COC(=O)c1ccccc1C1CN=NC12Cc1c(ccc(C)c1C)C2=O` (centres undefined), the GI50 was inactive: > 100 µM.
For the compound `CN1CCN(Cc2cc3c(nn2)-c2ccccc2C3=O)CC1`, the GI50 was inactive: 61.4 µM.
With `CC(=O)O[C@H]1[C@@H](OC(C)=O)C(C)(C)/C=C/[C@H](C)C(=O)[C@@]2(OC(C)=O)C[C@@](C)(OC(C)=O)[C@H](OC(C)=O)[C@@H]2[C@H]2OC(=O)CC[C@@]2(OC(=O)c2ccccc2)[C@@H]1OCC(C)C`, the GI50 was inactive: 81.8 µM.
To `Nc1nc(O)nc2snnc12` belongs inactive: > 100 µM; to `NC(=O)NC(=O)CCC(NS(=O)(=O)c1ccccc1)C(=O)NC(N)=O` (centres undefined), inactive: > 100 µM; to `Cc1cc(S(=O)(=O)Nc2n[nH]c(-c3ccc(Cl)cc3)n2)c(SSc2cc(Cl)c(C)cc2S(=O)(=O)Nc2n[nH]c(-c3ccc(Cl)cc3)n2)cc1Cl`, inactive: 28 µM.
As to `Cc1ccc(-c2c(C#N)c(-c3ccccc3)n(NS(=O)(=O)c3ccc(C)cc3)c(=O)c2C#N)cc1`, the GI50 was inactive: > 100 µM.
The same measure for `Cc1c(O)c(OC2OC(CO)C(O)C(O)C2O)cc2c1CC[C@@H]1C2(C)C(=O)C[C@]2(C)[C@@H]([C@@](C)(O)C(O)CCC(C)(C)O)[C@H](O)C[C@@]12C` (some centres undefined): inactive: > 100 µM; for `C=C1CC2CC[C@@]34C[C@H]5O[C@@H]6C(O[C@H]7CC[C@H](CC(=O)OC8[C@H](C)C9OC%10C[C@]%11(C[C@@H]%12O[C@]%13(C[C@H](C)[C@@H]%14O[C@H]([C@H](O)C[C@H](O)CO)C[C@@H]%14O%13)C[C@H](C)[C@@H]%12O%11)OC%10CC9O[C@H]8C[C@H]8O[C@H](CC[C@@H]1O2)C[C@@H](C)C8=C)O[C@H]7[C@@H]6O3)[C@@H]5O4` (some centres undefined): active: 0.00155 µM; for `CCN(CC)C(=S)SS(=O)(=O)c1ccccc1[N+](=O)[O-]`: inactive: > 100 µM.
Take `CC(=O)Nc1cc(Nc2cc(O)nc(O)n2)ccc1C`: the GI50 is inactive: > 100 µM.
Take `O=C1/C(=C\c2c(-c3ccccc3)[nH]n(-c3ccccc3)c2=O)C(c2ccccc2)=NN1c1ccccc1`: the GI50 is inactive: > 100 µM.
With `BC(=O)NC(CC(C)C)C(=O)NC1c2ccsc2C(=O)C1O.CN(C)C` (centres undefined), the GI50 was inactive: > 100 µM.
As for `c1cc(-c2sc(-c3ccncc3)c(-c3ccncc3)c2-c2ccncc2)ccn1`, the GI50 was inactive: 15.8 µM.
With `CN(C)Cc1cc(C(=O)/C=C/c2ccc(F)cc2)cc(CN(C)C)c1O`, the GI50 was inactive: 31.8 µM.
In the case of `CCc1ccc(NCc2cc(OC)c(OC)c(OC)c2)cc1`, the GI50 is inactive: 3.04 µM.
